{"source": "PubChem BioAssay AID1347165", "about": "(National Center for Advancing Translational Sciences (NCATS), 2019)", "note": "Out of some 220,000 compounds screened, about 5,700 (2.6%) were called active. Inconclusive results, whose numbers are uncertain, are shown with a selection of clear calls. The call rests on the fitted dose curve; in most records, active means well fitted inhibition curve with a large enough effect; inconclusive means small, poorly fitted or top-dose-only effect; inactive means no such curve, though single readings can be large or run the other way. Potencies of inconclusive entries are doubtful fits and often do not repeat. Potency means the concentration at half of the fitted maximal effect; tags describe the fitted curve by direction and shape.", "data": [{"target": "Lysine-specific demethylase 5B (Homo sapiens) (UniProt Q9UGL1)", "sequence (Q9UGL1 whole entry, looked up)": "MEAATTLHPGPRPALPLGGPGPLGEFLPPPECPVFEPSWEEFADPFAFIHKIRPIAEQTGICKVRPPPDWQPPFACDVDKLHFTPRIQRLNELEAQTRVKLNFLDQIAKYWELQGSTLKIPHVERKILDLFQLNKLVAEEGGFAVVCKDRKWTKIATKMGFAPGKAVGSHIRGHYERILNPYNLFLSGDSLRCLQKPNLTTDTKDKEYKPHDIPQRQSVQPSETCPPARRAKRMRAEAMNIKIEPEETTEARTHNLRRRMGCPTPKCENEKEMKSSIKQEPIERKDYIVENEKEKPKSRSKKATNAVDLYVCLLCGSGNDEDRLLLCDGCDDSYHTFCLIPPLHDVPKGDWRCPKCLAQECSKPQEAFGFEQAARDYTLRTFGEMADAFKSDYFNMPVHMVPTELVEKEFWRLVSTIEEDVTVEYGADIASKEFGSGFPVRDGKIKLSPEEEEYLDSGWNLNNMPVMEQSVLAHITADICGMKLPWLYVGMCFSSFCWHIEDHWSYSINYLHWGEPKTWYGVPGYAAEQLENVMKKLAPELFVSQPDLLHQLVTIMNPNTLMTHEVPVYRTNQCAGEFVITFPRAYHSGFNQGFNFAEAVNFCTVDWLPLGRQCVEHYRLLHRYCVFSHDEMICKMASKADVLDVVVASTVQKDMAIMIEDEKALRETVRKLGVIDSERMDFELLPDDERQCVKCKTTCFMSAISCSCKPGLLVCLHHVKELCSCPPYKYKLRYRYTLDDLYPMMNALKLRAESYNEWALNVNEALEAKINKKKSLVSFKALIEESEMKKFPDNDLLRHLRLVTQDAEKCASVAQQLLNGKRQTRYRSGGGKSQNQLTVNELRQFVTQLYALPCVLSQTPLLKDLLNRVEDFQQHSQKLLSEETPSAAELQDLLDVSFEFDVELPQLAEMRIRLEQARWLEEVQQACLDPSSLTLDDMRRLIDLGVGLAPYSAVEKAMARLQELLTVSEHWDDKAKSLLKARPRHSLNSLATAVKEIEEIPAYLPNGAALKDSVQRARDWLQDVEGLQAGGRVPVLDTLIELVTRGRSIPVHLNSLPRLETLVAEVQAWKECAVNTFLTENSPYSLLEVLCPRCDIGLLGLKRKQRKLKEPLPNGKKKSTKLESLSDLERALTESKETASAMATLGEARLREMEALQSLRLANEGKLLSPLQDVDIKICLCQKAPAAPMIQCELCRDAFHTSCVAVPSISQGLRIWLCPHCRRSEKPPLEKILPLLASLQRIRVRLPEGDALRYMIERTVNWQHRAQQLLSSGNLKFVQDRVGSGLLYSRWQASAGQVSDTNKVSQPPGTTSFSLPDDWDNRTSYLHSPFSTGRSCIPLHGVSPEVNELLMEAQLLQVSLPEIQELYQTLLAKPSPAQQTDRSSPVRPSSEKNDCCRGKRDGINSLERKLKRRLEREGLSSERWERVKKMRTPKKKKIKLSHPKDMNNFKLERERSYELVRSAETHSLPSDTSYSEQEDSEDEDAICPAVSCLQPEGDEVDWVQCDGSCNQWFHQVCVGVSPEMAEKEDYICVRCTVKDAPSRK", "experiment": "Primary screen for KDM5B Histone Demethylases FDH-coupled qHTS; further: nearly all actives have a fitted effect of over 70% in size; on activity change, negative = inhibition: 0% is about no effect", "details": "FDH-coupled NADH fluorescence (FDH is formaldehyde dehydrogenase); activity change, negative = inhibition: at 57.7 µM (top of the series) unless noted", "in_short": "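Compound dilutions met 200 nM (final) KDM5BΔAP for 10 min at room temperature before substrate addition. The substrate mix held 12.5 µM H3K4me3 with cofactors 25 µM α-ketoglutarate and 50 µM Fe²⁺. NADH signal gain over 30 min defined activity.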", "values": [{"smiles": "CC1CCN(c2oc(-c3ccc([N+](=O)[O-])cc3)nc2C#N)CC1", "Potency": "inconclusive: 22.4 µM [inhibitor, partial curve, poor fit]"}, {"smiles": "Cc1nc(N2CCCCC2)ncc1C(=O)N1CCC2(CCCNC2=O)C1", "note": "(stereo not drawn)", "Potency": "inconclusive: 22.4 µM [inhibitor, partial curve, poor fit]"}, {"smiles": "CC(C)n1nc(C(=O)NCC2CCOC2)c2ccccc2c1=O", "note": "(stereo not drawn)", "activity change, negative = inhibition": "inactive: 12.3%"}, {"smiles": "CCCN(CCC)C(=O)Cn1nnc2sc(-c3ccccc3)cc2c1=O", "Potency": "inconclusive: 28.2 µM [inhibitor, single point]"}, {"smiles": "CCN(CC)S(=O)(=O)c1ccc(OC(C)C)c(NC(=O)c2ccc3c(c2)NC(=O)C(C)S3)c1", "note": "(stereo not drawn)", "Potency": "inconclusive: 39.8 µM [inhibitor, single point]"}, {"smiles": "CC(C)c1ccc(CN2CC(CN[S+](=O)([O-])c3ccccc3)C3(C2)CN(c2ccccc2)C3)cc1", "note": "(stereo not drawn)", "Potency": "inconclusive: 35.5 µM [inhibitor, single point]"}, {"smiles": "COc1ccc(CNC(=O)CCC2N=C3c4ccccc4N=C(SCc4cccc(F)c4)N3C2=O)cc1", "note": "(stereo not drawn)", "Potency": "inconclusive: 31.6 µM [inhibitor, partial curve, poor fit]"}, {"smiles": "CCn1c(=O)c2cc(C(=O)NCCCOC)sc2c2ccccc21", "Potency": "inconclusive: 25.1 µM [inhibitor, partial curve, poor fit]"}, {"smiles": "COC(=O)C1=C(C)N(c2cccc(C)c2)C(=S)NC1c1ccc(-n2ccnc2)cc1", "note": "(stereo not drawn)", "activity change, negative = inhibition": "inactive: -1.17%"}, {"smiles": "C[S+](=O)([O-])CCn1ncc2cc(OCc3cccc(-c4ccc(Cl)cc4)c3)ccc21", "Potency": "inconclusive: 35.5 µM [inhibitor, single point]"}, {"smiles": "O=C(Nc1nc(-c2ccc(Cl)s2)cs1)C1CCN(C(=O)C2CC2)CC1", "activity change, negative = inhibition": "inactive: -2.85%"}, {"smiles": "COc1ccccc1C(=O)N[C@@H]1CN(c2ncccn2)C[C@H]1CN(C)C", "Potency": "inconclusive: 28.2 µM [inhibitor, partial curve, poor fit]"}, {"smiles": "Cc1ccccc1N(C)C1CN(C(=O)c2ccc3c(c2)OCO3)C1", "activity change, negative = inhibition": "inactive: -7.68% [at 149 µM]"}, {"smiles": "COc1nccnc1NC1CCN(C(=O)c2cnn3cccnc23)CC1", "Potency": "inconclusive: 28.2 µM [inhibitor, partial curve, poor fit]"}, {"smiles": "COc1ccc2[nH]c(C(=O)N3CCCN(S(=O)(=O)c4ccccc4)CCC(=O)NCC3)cc2c1", "Potency": "inconclusive: 28.2 µM [inhibitor, partial curve, poor fit]"}, {"smiles": "CCOc1ccc(CNC(=O)c2ccc3nc(CC)c(CC)nc3c2)cc1", "Potency": "inconclusive: 28.2 µM [inhibitor, partial curve, poor fit]"}, {"smiles": "O=C1Nc2ccc(-c3ccccc3F)cc2C(=O)N2CC[C@H](NS(=O)(=O)c3cccs3)[C@@H]12", "activity change, negative = inhibition": "inactive: -6.88%"}, {"smiles": "Cc1ccc(C(=O)Nc2ccc3oc(=O)ccc3c2)cc1", "Potency": "inconclusive: 35.5 µM [inhibitor, partial curve, poor fit]"}, {"smiles": "CCn1cnnc1CC1CCN(C(=O)c2cnn3c(C)c(Cc4ccccc4Cl)c(C)nc23)CC1", "Potency": "active: 28.2 µM"}, {"smiles": "Cc1cc(=O)oc2c(C)c(OCC(=O)NC3CCS(=O)(=O)C3)ccc12", "note": "(stereo not drawn)", "Potency": "inconclusive: 20 µM [inhibitor, partial curve, poor fit]"}, {"smiles": "CN(C)c1nc2c(c(=O)[nH]1)CCN(Cc1cccc(Cl)c1F)CC2", "Potency": "inconclusive: 3.16 µM [inhibitor, single point]"}, {"smiles": "Cc1nc(Nc2nc3ccccc3o2)ncc1C(=O)Nc1ccccc1C(F)(F)F", "activity change, negative = inhibition": "inactive: 12.3%"}, {"smiles": "COc1ccc(C(=O)NC2CCN(c3cc(-c4ccc(Cl)cc4)[nH]n3)C2)cc1", "note": "(stereo not drawn)", "Potency": "inconclusive: 14.1 µM [inhibitor, partial curve, poor fit]"}, {"smiles": "CC[C@H]1CN(C(=O)c2cccnc2)CC[C@H]1CC(=O)NCc1cccnc1", "Potency": "inconclusive: 56.2 µM [inhibitor, single point]"}, {"smiles": "COc1cccc2sc(NC(=O)c3ccc4c(c3)OCCN(C3CCC3)C4)nc12", "Potency": "active: 35.5 µM"}, {"smiles": "Cc1noc(C)c1C(=O)N1CCC2(CC1)CC(c1ccccc1)C(=O)N2C", "note": "(stereo not drawn)", "activity change, negative = inhibition": "inactive: 2.75%"}, {"smiles": "CC(=O)NCCNC(=O)c1cc(C)nc2ccc(C)cc12", "Potency": "inconclusive: 22.4 µM [inhibitor, partial curve, poor fit]"}, {"smiles": "Cc1cc(NC(=O)COCc2cc(-c3ccc(F)cc3)on2)ccc1Br", "Potency": "inconclusive: 1 µM [inhibitor, full curve, poor fit]"}, {"smiles": "CN1CC(=O)N(C2CCCNCC2)Cc2c(NCc3ccccn3)ncnc21", "note": "(stereo not drawn)", "Potency": "inconclusive: 56.2 µM [inhibitor, partial curve, poor fit]"}, {"smiles": "CN1CCN(Cc2ccc(-c3cnc4c(OCc5ccccc5)nccn34)cc2)CC1", "Potency": "active: 31.6 µM"}, {"smiles": "Cc1ccc(C(=O)NC2CCN(C(=O)c3cc4c(=O)[nH]c(C)cn4n3)CC2)cc1", "Potency": "inconclusive: 28.2 µM [inhibitor, single point]"}, {"smiles": "CCc1nnc2ccc(NCc3ccccc3)nn12", "Potency": "inconclusive: 25.1 µM [inhibitor, single point]"}, {"smiles": "Fc1cccc(C=Nc2cccc3c(N=Cc4cccc(F)c4)cccc23)c1", "Potency": "inconclusive: 20 µM [inhibitor, partial curve, poor fit]"}, {"smiles": "CCS(=O)(=O)N(C1CC1)C1CCOC2(CCN(C(=O)CCCc3ccccc3)CC2)C1", "note": "(stereo not drawn)", "Potency": "inconclusive: 39.8 µM [inhibitor, single point]"}, {"smiles": "CCOc1ccc(-c2cc(C(=O)O)c3cc(C)ccc3n2)c(OCC)c1", "Potency": "inconclusive: 22.4 µM [inhibitor, single point]"}, {"smiles": "Cn1c(=O)c2c(n3c4ccccc4nc13)NC(=O)CC2c1cccc(F)c1", "note": "(stereo not drawn)", "Potency": "inconclusive: 31.6 µM [inhibitor, partial curve, poor fit]"}, {"smiles": "COCCc1noc(-c2ccccc2OC2CN(C(=O)c3ccccc3OC)C2)n1", "Potency": "inconclusive: 20 µM [inhibitor, partial curve, poor fit]"}, {"smiles": "COC1CCC12CCN(C(=O)c1ccccn1)CC2", "note": "(stereo not drawn)", "Potency": "inconclusive: 12.6 µM [inhibitor, partial curve, poor fit]"}, {"smiles": "Cc1ccc(C2=NOC(=O)/C2=C\\c2ccc(C)o2)cc1", "Potency": "inconclusive: 14.1 µM [inhibitor, partial curve, poor fit]"}, {"smiles": "CCC(CC)C(=O)N1CCC(N2CCCC(C(=O)NCc3ccccc3)C2)CC1", "note": "(stereo not drawn)", "Potency": "inconclusive: 5.62 µM [inhibitor, partial curve]"}, {"smiles": "Cc1ccc2nc(Nc3ccccc3)c(-n3nc(C)cc3C)nc2c1", "Potency": "inconclusive: 39.8 µM [inhibitor, single point]"}, {"smiles": "COc1cccc(NC(=O)CSCc2cc(=O)c3ccc(C)c(C)c3[nH]2)c1", "activity change, negative = inhibition": "inactive: 8.36%"}, {"smiles": "N#Cc1ccc(N2CCC(C(=O)Nc3ccc(S(=O)(=O)N4CCCC4)cc3)CC2)nc1", "Potency": "inconclusive: 11.2 µM [inhibitor, partial curve, poor fit]"}, {"smiles": "Cc1ccc(NC(=O)c2cc(-c3ccc[nH]3)n[nH]2)cc1", "activity change, negative = inhibition": "inactive: -16.4%"}, {"smiles": "COc1ccc(OC)c(CNS(=O)(=O)c2ccc3[nH]c4c(c3c2)CCCCC4)c1", "Potency": "inconclusive: 25.1 µM [inhibitor, partial curve, poor fit]"}, {"smiles": "Cc1cc(C)nc(N2CCC(C(=O)NC3CC3)CC2)n1", "Potency": "inconclusive: 20 µM [inhibitor, partial curve, poor fit]"}, {"smiles": "O=C(NCC1COc2ccccc2O1)c1nn(Cc2ccccc2)c(=O)c2ccccc12", "note": "(stereo not drawn)", "Potency": "inconclusive: 35.5 µM [inhibitor, single point]"}, {"smiles": "COc1ccccc1-c1nc(COc2ccc(Cl)cc2Cl)no1", "Potency": "inconclusive: 25.1 µM [inhibitor, partial curve, poor fit]"}, {"smiles": "N#Cc1ccc(CN2CCCN(S(=O)(=O)c3ccccc3)CCC(=O)NCC2)cc1", "Potency": "inconclusive: 20 µM [inhibitor, partial curve, poor fit]"}, {"smiles": "O=C(c1ccc2c(c1)OCCO2)C1CCN(C(=O)c2ccccc2)CC1", "activity change, negative = inhibition": "inactive: -9.79%"}, {"smiles": "CC(C)C(=O)Nc1ccc2c(C(C(=O)O)N3CCN(c4ncccc4C#N)CC3)c[nH]c2c1", "note": "(stereo not drawn)", "Potency": "inconclusive: 25.1 µM [inhibitor, single point]"}, {"smiles": "Cc1ccc(CN2CCC(CNC(=O)CCc3nnc4ccc(N5CCCCC5)nn34)C2)cc1", "note": "(stereo not drawn)", "activity change, negative = inhibition": "inactive: 30.3%"}, {"smiles": "CCOc1ccccc1NC(=O)Cn1cccc1-c1nc(-c2ccc(F)cc2)no1", "activity change, negative = inhibition": "inactive: -5.68%"}, {"smiles": "N#Cc1c[nH]n2c(NC3CCCCC3)c(-c3ccccc3F)nc12", "Potency": "inconclusive: 25.1 µM [inhibitor, partial curve, poor fit]"}, {"smiles": "Cc1c(-c2nsc(NC(=O)c3cccs3)n2)nnn1-c1ccc(Cl)cc1", "Potency": "inconclusive: 25.1 µM [inhibitor, single point]"}, {"smiles": "CCOc1ccc2c(n1)CCN(C(=O)c1nn(C)c3ccccc13)C2", "Potency": "inconclusive: 14.1 µM [inhibitor, partial curve, poor fit]"}, {"smiles": "COc1ccc(-c2ccc3c(n2)c(=O)ncn3Cc2ccccc2)cc1OC", "activity change, negative = inhibition": "inactive: -23% [at 86.2 µM]"}, {"smiles": "CC(C)(N)C(=O)N1CCCC(N2CCN(c3cccc(C(F)(F)F)c3)CC2)C1", "note": "(stereo not drawn)", "Potency": "inconclusive: 14.1 µM [inhibitor, partial curve, poor fit]"}, {"smiles": "CCn1c(SCC(=O)Nc2ccc3c(c2)OCCO3)nc2ccsc2c1=O", "activity change, negative = inhibition": "inactive: 0.532%"}, {"smiles": "N#Cc1ccccc1-c1ccc(CN2CCCC2)cc1", "activity change, negative = inhibition": "inactive: -6.06%"}, {"smiles": "O=C(CCc1ccccc1)NCC(=O)N1CCN(c2ccccn2)CC1", "Potency": "inconclusive: 22.4 µM [inhibitor, partial curve, poor fit]"}, {"smiles": "OCC1CN(c2ncccn2)CC12CCN(Cc1cc(Cl)ccc1F)CC2", "note": "(stereo not drawn)", "Potency": "active: 25.1 µM"}, {"smiles": "COc1cc2nc(C)n(CC(=O)NC3CCCc4c3[nH]c3ccccc43)c(=O)c2cc1OC", "note": "(stereo not drawn)", "Potency": "inconclusive: 12.6 µM [inhibitor, partial curve, poor fit]"}]}]}
